Experimental data from PubChem BioAssay AID743279 (National Center for Advancing Translational Sciences (NCATS), 2014).
Among all 360,000 compounds or so, about 17,000 (4.7%) were called active. The inconclusive results got no clear call from the source; some entries with a clear call stand among them for comparison. No stated cut-off is given here; in the data, active means activity change below about -50%; inconclusive means mostly about -30% to -49%; inactive means weaker than that.

Test: qHTS for Inhibitors of Inflammasome Signaling: IL-1-beta AlphaLISA Primary Screen
Settings: THP-1 LPS/ATP IL-1B secretion, 16 h; at 57.5 µM, active compounds read low
Summary of the method: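 Secreted IL-1B measured by AlphaLISA bead assay after 16 h compound exposure of THP-1 cells; compounds (final up to 57.5 uM) added 1 h before LPS (250 ng/mL) and ATP (1.25 mM) stimulation; lower signal means less secretion.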
On the % scale 0 is the no-effect control and ±100 the full control effect.

| SMILES | activity change |
| --- | --- |
| COc1cccc(CN(C)CC(=O)N2CCN(S(=O)(=O)c3ccccc3)CC2)c1 | inactive: 4.35% |
| Cc1nn(C(C)C)c(C)c1CN1CCCC(C(=O)c2cccc(OC(C)C)c2)C1 (stereo unspecified) | inconclusive: -33.4% |
| COc1ccc(CCC(C)NC2C3CC4CC(C3)CC2C4)cc1 (stereo unspecified) | inconclusive: -46.1% |
| Cc1ccc(O)c(Nc2c3ccccc3nc3ccccc23)c1 | active: -95.3% |
| O=C(C1=C[C@H](c2ccccc2)C[C@H](OCc2ccc(CO)cc2)O1)N1CCN(Cc2ccccc2)CC1 | active: -60.1% |
| O=C(NNC(=O)c1csc(N2CCOCC2)n1)c1cccnc1 | inactive: 14.8% |
| CCOc1ccc(S(=O)(=O)Nc2nc3ccccc3nc2-n2ccc(=NC(=O)c3ccccc3C)cc2)cc1 | inconclusive: -35% |
| CC(C)CC(=O)NC(=S)Nc1cccc(NC(=O)c2ccccc2)c1 | inconclusive: -31.9% |
| O=[N+]([O-])c1ccc(-c2ccc(S(=O)(=O)NCCN3CCCC3)cc2)cc1 | inconclusive: -34.5% |
| Fc1ccc(C[n+]2csc3ccccc32)cc1 | active: -115% |
| C[C@@H]1CN([C@@H](C)CO)C(=O)CCCn2nncc2CO[C@H]1CN(C)Cc1ccc(-c2ccccc2)cc1 | inactive: 26.9% |
| COc1cc(-c2noc(C)c2C#CC2(O)CCCCC2)cc(OC)c1OC | inconclusive: -31.1% |
| O=C(Cc1c(F)cccc1Cl)NCC(=O)OCc1ccccc1 | inconclusive: -42.6% |
| O=C(CN1CCN(S(=O)(=O)c2ccc(Br)cc2)CC1)N/N=C/c1ccc(Br)s1 | inconclusive: -42.3% |
| O=c1cc(N2CCCCC2)c(-c2ccccc2)nn1Cc1ccccc1Cl | inconclusive: -33% |
| Cc1nn(C)c(Oc2ccccc2)c1CCNS(=O)(=O)c1ccc(Cl)cc1 | inconclusive: -30.4% |
| Fc1ccccc1-c1csc(=Nc2cccnc2)n1CCCn1ccnc1 | inconclusive: -39.9% |
| COc1cccc(NC(=S)/C(=C(\[O-])c2ccc(C)c([N+](=O)[O-])c2)[n+]2ccccc2)c1 | inactive: -14.9% |
| NC(=S)N/N=C1\CCOc2ccc(F)cc21 | inconclusive: -47.4% |
| CNc1cncc(-c2ccc(F)cc2F)n1 | inconclusive: -30.4% |
| Cc1cc(C(=O)CN2C(=O)NC3(CCCc4sccc43)C2=O)c(C)n1-c1ccccc1 (stereo unspecified) | inconclusive: -34.7% |
| Cc1ccc2nc(NC(=O)CN3CCN(c4ccccn4)CC3)sc2c1 | inconclusive: -35.7% |

| SMILES | activity change |
| --- | --- |
| N#C/C(=C\c1ccc(N2CCCCC2)o1)C(=O)Nc1cccc(Br)c1 | inconclusive: -44.2% |
| COC(=O)/C=c1/s/c(=C(\C#N)C(=O)NCc2ccco2)n(-c2ccccc2)c1=O | inconclusive: -44.5% |
| CC(=O)c1sc(=S)n(-c2ccccc2)c1C | inactive: 5.21% |
| Cc1cc([N+](=O)[O-])nn1CC(=O)NCCCn1ccnc1 | inactive: 19.8% |
| C[C@@H](C(=O)NCc1ccccc1)[C@@H]1C[C@@]1(C)[C@@H](NC(=O)OCc1ccccc1)c1ccccc1 | active: -56.6% |
| C/C(=N\OC(=O)NC(C)C)c1sc(-c2ccccc2)nc1C | inconclusive: -36.9% |
| COC(=O)Cn1ccc2cc(S(=O)(=O)N3CCCCC3)ccc21 | inactive: -24.5% |
| Cc1sc(NC(=O)c2sc3nc4c(C)cccc4cc3c2N)c(C#N)c1C | inactive: 3.41% |
| O=[N+]([O-])c1ccc(Cl)c(NC(=S)N2CCCC2)c1 | inactive: -14.7% |
| CCC(c1nnc(SCC(=O)Nc2ccc(Cl)cc2C(F)(F)F)n1C1CCCCC1)N(C)C (stereo unspecified) | inconclusive: -31% |
| COc1ccc(OC)c(NC(=O)Nc2nnc([C@@H]3O[C@H](CO)[C@@H](O)[C@H]3O)s2)c1 | inactive: 11.9% |
| CCN(CC)CCCN(C(C)=O)c1nc(-c2cc(OC)ccc2OC)cs1 | inconclusive: -44.7% |
| CC(=O)N1CCN(C(=O)CCCNC(=O)c2ccc(Cl)cc2)CC1 | inactive: 5.69% |
| CSc1ccccc1NC(=O)CO/N=C(\C)c1cc2ccccc2o1 | inconclusive: -30.9% |
| CC(C)c1[nH]nc2c1C(C(C)C)C(C#N)=C(N)O2 (stereo unspecified) | inconclusive: -41.8% |
| c1ccc(CSC2=NCCCN2)cc1 | inconclusive: -31.5% |
| COc1ccccc1NC(=O)C1CCN(c2ncnc3c2nc2n3CCCCC2)CC1 | inconclusive: -32% |
| CC(=O)Nc1ccc(-c2csc(NNC(=O)c3ccccc3)n2)cc1 | inconclusive: -32.4% |
| COc1ccc(CC2(CO)CCN(Cc3nc(C(C)C)cs3)CC2)cc1 | inactive: 14.2% |
| CCc1cc2c(Sc3nc4ccccc4s3)ncnc2s1 | inconclusive: -42.8% |
| O=C(COc1ccc(S(=O)(=O)NC2CCCCC2)cc1Cl)N1CCN(c2ccccc2)CC1 | inconclusive: -32.4% |
| COc1ccc(C(=O)NCc2ccc(C)cc2)cc1S(=O)(=O)N1CCCc2ccccc21 | inconclusive: -32.8% |

| SMILES | activity change |
| --- | --- |
| CCc1cc2c(=O)c(-c3ccc4c(c3)OCCO4)coc2c(CN2CCCCC2C)c1O (stereo unspecified) | inconclusive: -31.5% |
| CC1(C)C[C@@H]2C[C@@](C)(CN2C(=O)c2cc(COc3cccc(C(F)(F)F)c3)on2)C1 | active: -61.1% |
| CCc1cccc(NC(=O)c2ccc(Br)o2)c1 | inconclusive: -43.8% |
| c1ccc(CNc2nc(Oc3ccncc3)c3sccc3n2)cc1 | inactive: 17.2% |
| O=C(NC(Cc1ccccc1)C(=O)O)/C(=C\c1ccc(Cl)cc1)NC(=O)c1ccco1 (stereo unspecified) | inactive: 8.75% |
| O=C(c1ccc([N+](=O)[O-])o1)N1CCN(c2nc3c(Cl)cccc3s2)CC1 | active: -79.3% |
| CCC(=O)Nc1ccc(C(=O)CSc2nc3ccccc3cc2CC)cc1 | inconclusive: -35.7% |
| Fc1ccc(Cn2nnnc2C(c2ccc(Cl)cc2)N2CCSCC2)cc1 (stereo unspecified) | inconclusive: -38.1% |
| COc1ccc(Cc2c(-c3cccc(Cl)c3)nc3c(C)cc(Br)cn23)c(C)c1 | inconclusive: -36.4% |
| Cn1c(=O)oc2cc(S(=O)(=O)N3CCCC(C(=O)NCc4ccc5c(c4)OCO5)C3)ccc21 (stereo unspecified) | inactive: -19.5% |
| Clc1ccc(-c2cnc3n2CCCCC3)cc1 | inconclusive: -34.8% |
| Cc1ccc(Cn2c(-c3nonc3N)nc3ccccc32)cc1 | inactive: 12.3% |
| CCC1C2CN(C(C)=O)CC=C2C(C#N)=C(N)C1(C#N)C#N (stereo unspecified) | inactive: 20.7% |
| Cc1onc(-c2c(F)cccc2Cl)c1C(=O)Nc1sc2c(c1C(N)=O)CCC2 | inconclusive: -35.5% |
| Oc1ccc(-c2n[nH]c(C(F)(F)F)c2-c2ccccc2)c(O)c1 | active: -78.1% |
| COc1ccc(C(=O)NC2(C(F)(F)F)NC(=O)N(CCCc3ccccc3)C2=O)cc1OC (stereo unspecified) | active: -67.8% |
| CC(Oc1ccc(Cl)cc1)C(=O)Nc1sccc1C(N)=O (stereo unspecified) | active: -62.4% |
| COc1ccc(-n2nc(C(=O)NCC(=O)N3CCN(c4ccccn4)CC3)c3ccccc3c2=O)cc1 | inconclusive: -36.5% |
| O=C(NCCNC(=O)c1ccccc1Cl)c1ccco1 | inactive: 11.2% |
| CCC(CO)Oc1cc(NCc2cccc(C(F)(F)F)c2)c2ncn(C(C)C)c2c1 (stereo unspecified) | inactive: 0.0744% |
| CCN(C(=O)/C=C/c1ccc(OC)cc1)C1CCCCC1 | inconclusive: -38.7% |
| Cc1ccc2cc(CN(Cc3cccs3)Cc3nnnn3CC3CCCO3)c(=O)[nH]c2c1 (stereo unspecified) | inconclusive: -36.4% |

| SMILES | activity change |
| --- | --- |
| O=C(N/N=C/C(Br)=C/c1ccccc1)c1cccs1 | inconclusive: -35.1% |
| O=C(Nc1nc(=O)n(C(=O)C2CC2)s1)c1ccccc1 | inconclusive: -48% |
| CCOC(=O)C1=C(C)Nc2nc3ccccc3n2C1c1ccc(O)cc1 (stereo unspecified) | inactive: 16.5% |
| Cc1cc(C)cc(N(CCC#N)C(=O)CSc2ncnc3sccc23)c1 | inconclusive: -44.8% |
| COC(=O)c1c(-c2ccccc2Cl)noc1/C=C/N(C)C | inconclusive: -30.2% |
| CCN(CC)C(=O)Oc1ccnc2cc(Cl)ccc12 | inconclusive: -37.7% |
| Clc1cccc(-c2ccc(-c3nc4ccccn4c3NCc3ccccc3)cc2)c1 | inconclusive: -31% |
| Cc1ccc(-c2nc3ccccc3[nH]2)cc1NC(=O)c1ccc2c(c1)OCO2 | inactive: -17.1% |
| Cc1ccc2nc(N3CCC(C(=O)O)CC3)nc(-c3ccccc3)c2c1 | inactive: 1.99% |
| O=C(NCC1CCCCC1)C1(CC2CC(c3ccc(Cl)cc3)=NO2)CCNCC1 (stereo unspecified) | inconclusive: -35% |
| CCOC(=O)C1=CC[C@@H](c2cccc(Br)c2)N(S(=O)(=O)c2ccc(F)cc2)[C@H]1c1cccc(Cl)c1 | inactive: 10.8% |
| COc1cccc(-c2n[nH]nc2C2=CC(=O)C[C@H](c3ccc(F)cc3)C2)c1 | inconclusive: -30.3% |
| CCc1ccc(NC(=O)N2CCCCCC2)cc1 | inconclusive: -31.3% |
| CCN(CC)C(=O)C1CCCN(c2ccc([N+](=O)[O-])cc2/C=N/NC(=O)c2cccc([N+](=O)[O-])c2)C1 (stereo unspecified) | inconclusive: -43.8% |
| CCc1[nH]nc2c1C(C1C=CCCC1)C(C#N)=C(N)O2 (stereo unspecified) | active: -54.4% |
| O=C(Cn1c(C(=O)N2CCN(C3CCCCC3)CC2)cc2sccc21)c1ccccc1 | inconclusive: -34.6% |
| CCOC(=O)c1nn(-c2ccc(Cl)cc2)cc1O | inconclusive: -37% |
| CC1=C(C(=O)N(C(C)C)C(C)C)CC(CC(=O)NCCN2CCOCC2)C(=O)N1Cc1ccc(C(C)(C)C)cc1 (stereo unspecified) | inconclusive: -35.1% |
| COc1ccc(Br)cc1CNC(=O)C1CCCN(S(=O)(=O)N2CCC(C)CC2)C1 (stereo unspecified) | inconclusive: -33.4% |
| Cc1cc(O)ccc1Nc1nc(-c2cccs2)cs1 | active: -84.1% |
